# Test results as given in the supplement of paper PMC3334620.
# The full ranking holds about 33,000 sequences; the median of “E-score (-0.5 to 0.5)” is about -0.012, and the highest 2% start at about 0.29. The list shows a part of the results.
# Target: T1, Ybr033w (UniProt P38073)
# T1 sequence: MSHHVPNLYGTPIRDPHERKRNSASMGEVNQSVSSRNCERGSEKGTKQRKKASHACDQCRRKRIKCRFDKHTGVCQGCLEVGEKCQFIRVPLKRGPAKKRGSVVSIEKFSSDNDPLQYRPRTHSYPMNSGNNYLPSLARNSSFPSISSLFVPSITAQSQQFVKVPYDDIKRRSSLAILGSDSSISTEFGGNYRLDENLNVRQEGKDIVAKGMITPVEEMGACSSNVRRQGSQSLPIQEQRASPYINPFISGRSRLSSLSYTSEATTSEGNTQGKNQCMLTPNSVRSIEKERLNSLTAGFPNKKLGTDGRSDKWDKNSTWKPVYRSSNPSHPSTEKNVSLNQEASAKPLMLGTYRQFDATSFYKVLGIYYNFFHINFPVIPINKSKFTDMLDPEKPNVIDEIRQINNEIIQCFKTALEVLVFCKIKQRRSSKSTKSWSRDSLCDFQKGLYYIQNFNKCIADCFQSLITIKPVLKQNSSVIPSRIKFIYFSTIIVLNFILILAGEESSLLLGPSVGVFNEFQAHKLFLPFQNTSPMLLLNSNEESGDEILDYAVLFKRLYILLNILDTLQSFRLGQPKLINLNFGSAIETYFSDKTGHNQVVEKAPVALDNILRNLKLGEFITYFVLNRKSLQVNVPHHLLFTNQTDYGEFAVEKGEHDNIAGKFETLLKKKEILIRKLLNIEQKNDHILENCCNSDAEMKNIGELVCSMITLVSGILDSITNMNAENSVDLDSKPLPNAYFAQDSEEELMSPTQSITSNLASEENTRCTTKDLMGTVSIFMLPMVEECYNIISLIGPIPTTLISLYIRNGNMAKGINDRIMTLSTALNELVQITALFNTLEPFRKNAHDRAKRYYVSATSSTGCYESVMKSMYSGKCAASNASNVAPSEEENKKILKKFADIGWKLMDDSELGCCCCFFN
# Assay: PBM E-score (8-mer binding enrichment) (E-score (-0.5 to 0.5)); higher = stronger / more preferred TF binding; most listed sequences are background and not binding sites
# Details: protein concentration: 200 nM; construct: GST-full length
# Procedure, shortened: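 Masliner-normalised scans of fluorescent anti-GST signal were the basis for scoring. That signal came from GST-tagged yeast transcription factors applied at about 100-200 nM to double-stranded universal all-10-mer Agilent arrays on fresh or once-stripped slides. Each ungapped eight-base word, pooled with its reverse complement, received an E-score from the Universal PBM Analysis Suite.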
row,Sequence,PBM E-score
1,ACGCTCTC,-0.281
2,GATATAAA,0.142
3,GATTATGC,0.0323
4,ACGGCAAC,-0.169
5,CCCGAGCG,-0.0658
6,AAGAACCT,0.154
7,CTATGTCA,0.0495
8,ACTATTGG,-0.146
9,CCTAATGA,0.0448
10,CGTTGAGA,0.0633
11,ACAACTTG,0.00851
12,AGGCTTTC,0.0556
13,ACACCACA,0.121
14,ACCCTTGC,-0.0854
15,AACGCACC,-0.0917
16,ACTGTATC,-0.101
17,ATACAGTC,-0.163
18,ATCTTCGC,0.0516
19,GGAAATAA,0.284
20,AAAAGGGG,-0.348
21,ATGGAATG,0.0355
22,CCCCGGCA,-0.179
23,AGGCATAG,-0.0396
24,CATTACAG,0.0258
25,TCGTAGAA,-0.0364

row,Sequence,PBM E-score
1,ATAGGTGC,-0.0848
2,CGAGATAA,0.166
3,CGGGTTAA,0.21
4,CGCCATCA,-0.285
5,GGGGTGTA,-0.22
6,CATGACGG,0.0123
7,AGCACCTA,-0.132
8,AACAGAAC,0.189
9,TAGAAGGA,-0.208
10,AGGCTCTG,-0.109
11,CACCTTAC,-0.00385
12,ATAGCGTG,0.0161
13,ATTGATTC,0.233
14,ACACATGA,0.00873
15,ACCGTCTG,-0.155
16,AGGATAGC,0.063
17,AAATGGTG,0.22
18,TCAACTGA,-0.055
19,CCGGGCCG,-0.177
20,TATCCAGA,0.158
21,GTCGTAAA,0.0199
22,AAAACTCC,0.029
23,AAAGTGTG,-0.001
24,CCAACACC,-0.239
25,TAGCAATA,0.16

row,Sequence,PBM E-score
1,ACCAAAGA,0.166
2,ATTGGGAG,-0.116
3,CACTACTC,0.134
4,AGAACAAT,0.209
5,CGTATAGC,-0.0573
6,TCCACACA,0.111
7,AGATCGAC,-0.154
8,GGCATTGA,-0.0989
9,AAATTCGA,0.204
10,GCCAAGGC,-0.279
11,CAGTGTCG,-0.101
12,CTAAAAAG,0.185
13,ATGCACTG,0.0166
14,AATATTTA,0.318
15,AGTTACAG,0.122
16,ACACGGTC,-0.208
17,CACGATAG,0.134
18,CCAAATGA,0.0459
19,GATCATTA,0.225
20,CGAACGCC,-0.299
21,AGCGGAAT,0.112
22,AGCTGGGC,-0.192
23,GCAGTCAA,-0.198
24,AGATACTG,0.0567
25,ACTCTCAC,0.0357

row,Sequence,PBM E-score
1,AATTGCGT,0.148
2,CATAATAA,0.131
3,AATATTGC,0.223
4,CCTGAATA,0.186
5,CACACAGC,-0.0511
6,CCTTGTCA,0.0102
7,AGCGCTCA,-0.131
8,AAATGTGA,0.073
9,AATGACGA,0.189
10,GAACGCGA,0.00319
11,CGAATTCG,-0.115
12,CGCGCACC,-0.0167
13,ATATGTAC,0.0761
14,AGAGCAGA,-0.00101
15,ACCGTATA,-0.0708
16,CAGAGGCA,-0.234
17,AAGCCGCT,-0.0763
18,ATAGAAAA,0.252
19,AGACGGAT,0.215
20,AGGCGTTA,0.0198
21,CAATCCAA,-0.0449
22,ATCGGATC,0.0725
23,CTCGCCGA,-0.146
24,AGTATAAT,0.225
25,ACGTGTAC,-0.0471

row,Sequence,PBM E-score
1,TACTACCA,0.106
2,CAAAGATA,0.132
3,CGTCCAGA,-0.169
4,GCATATCC,0.00857
5,CCGGACAC,-0.248
6,ATCTTGCA,0.294
7,GAAGCACC,-0.133
8,GACTACTC,-0.0315
9,CCGTGCAG,-0.0414
10,AGAGAACC,-0.151
11,CCTAAGAG,-0.0267
12,ACTTGGGC,-0.117
13,TGGCCCCA,-0.264
14,AGTCACGC,-0.126
15,CCGATCGA,-0.0568
16,ATACGGAA,0.271
17,CTAGATAG,-0.0269
18,ACCTGCCT,-0.118
19,GATAGAAA,0.115
20,TCCCAGGA,-0.257
21,GAATTCCA,0.262
22,AAATCTTC,0.236
23,CCCGGTCC,-0.274
24,CACGTGGG,-0.208
25,AGAAAATA,0.314

row,Sequence,PBM E-score
1,TTAAGAAA,0.0544
2,AAAAATAA,0.275
3,GCTCAAGC,-0.0465
4,GGCCCATA,-0.173
5,CCGTAGAA,-0.039
6,ACCGCGAC,-0.0275
7,GGACGCTA,-0.0845
8,AAGCTTGC,-0.106
9,AGGTAGAG,-0.0558
10,CGGCAGTA,-0.2
11,ACAGCGAC,-0.134
12,ATTCCCGG,0.0582
13,CCCATAGG,-0.205
14,CACATTCC,-0.0315
15,GTATCAAA,0.2
16,CCTTGGCA,-0.0926
17,ACGGTTGC,-0.272
18,ACTTAAAA,0.0812
19,ATGCGCGC,0.0629
20,GTTATCGA,0.0103
21,CGGCTATC,-0.0654
22,CTGGCCAA,-0.0858
23,AAGGGGCC,-0.22
24,AGTTATTG,0.223
25,CACCTCGC,-0.137

row,Sequence,PBM E-score
1,CAAGCGTA,0.093
2,CCCTGCAA,-0.0995
3,CTTAACAC,0.112
4,AAGCCCTA,-0.124
5,ACGGGAGT,0.0679
6,AGGCAGAG,-0.0794
7,ATCTTTTC,0.239
8,TGTGGAAA,0.291
9,GGTGGTCA,-0.228
10,ACTCCACC,0.0171
11,AACTATTC,0.165
12,AGAGAACA,0.112
13,ACATAGCC,0.0728
14,CCCGCTGA,-0.372
15,ATTCCCGC,0.165
16,AGGAGCCG,-0.189
17,CCCTATTC,-0.0732
18,CCCCTAAC,-0.173
19,CCCGGCGA,-0.248
20,CATCACAG,-0.03
21,CTATCTTC,0.133
22,ACGCGAGA,0.104
